# Laboratory results as given in paper PMC4336329 (PLoS ONE, 2015).
# The campaign covered roughly 310,000 compounds. About 2,200 (0.71%) showed an effect of 50% or more. The effect is printed as a negative number. The list shows a part of the results. Where a SMILES comes first, the peptide text is derived from it. [ ]: non-standard residue; d: D form. pGlu = O=C1CC[CH](C(=O)O)N1
# Target: human ether-à-go-go-related gene (hERG) potassium channel (human, UniProt Q12809)
# Experiment: primary screen, population patch clamp on CHO cells stably expressing hERG
# Sequence of human ether-à-go-go-related gene (hERG) potassium channel (Q12809 whole entry, looked up): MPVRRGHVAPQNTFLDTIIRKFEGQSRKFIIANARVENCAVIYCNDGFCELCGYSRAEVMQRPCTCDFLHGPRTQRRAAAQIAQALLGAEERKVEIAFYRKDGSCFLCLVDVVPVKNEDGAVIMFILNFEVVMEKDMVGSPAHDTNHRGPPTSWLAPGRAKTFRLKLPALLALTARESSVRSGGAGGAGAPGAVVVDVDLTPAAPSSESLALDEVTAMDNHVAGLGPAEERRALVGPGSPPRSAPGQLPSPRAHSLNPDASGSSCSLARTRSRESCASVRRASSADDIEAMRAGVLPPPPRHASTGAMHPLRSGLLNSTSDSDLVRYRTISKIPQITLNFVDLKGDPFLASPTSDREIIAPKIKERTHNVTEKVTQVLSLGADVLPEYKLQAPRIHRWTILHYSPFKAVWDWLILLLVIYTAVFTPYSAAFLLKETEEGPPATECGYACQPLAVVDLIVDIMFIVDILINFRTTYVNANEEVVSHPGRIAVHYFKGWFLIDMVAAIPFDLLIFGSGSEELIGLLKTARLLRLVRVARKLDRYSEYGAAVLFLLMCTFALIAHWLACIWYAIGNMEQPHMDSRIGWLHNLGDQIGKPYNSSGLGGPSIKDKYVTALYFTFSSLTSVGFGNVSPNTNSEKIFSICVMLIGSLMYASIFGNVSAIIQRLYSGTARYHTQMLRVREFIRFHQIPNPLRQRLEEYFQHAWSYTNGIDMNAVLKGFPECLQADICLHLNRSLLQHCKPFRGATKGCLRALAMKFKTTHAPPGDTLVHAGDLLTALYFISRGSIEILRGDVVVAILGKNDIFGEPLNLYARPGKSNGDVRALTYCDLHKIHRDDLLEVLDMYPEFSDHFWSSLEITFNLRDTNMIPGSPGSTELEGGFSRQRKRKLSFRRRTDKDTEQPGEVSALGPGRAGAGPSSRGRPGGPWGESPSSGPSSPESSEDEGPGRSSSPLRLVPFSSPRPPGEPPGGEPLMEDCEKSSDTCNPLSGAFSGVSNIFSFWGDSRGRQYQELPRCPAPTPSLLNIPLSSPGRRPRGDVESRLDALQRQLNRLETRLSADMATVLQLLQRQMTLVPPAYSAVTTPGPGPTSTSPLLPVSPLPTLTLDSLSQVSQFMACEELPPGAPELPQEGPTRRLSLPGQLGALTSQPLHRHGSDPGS
row,Compound,"hERG current change (%, negative = inhibition) at 1uM"
1,CCOc1cc(S(=O)(=O)n2c(C)nc3ccccc32)ccc1F,3.14%
2,Cc1ccc(-n2[nH]c(C)c(/C=N/Nc3ccc([N+](=O)[O-])cc3[N+](=O)[O-])c2=O)cc1C,9.38%
3,CCN(CC)CCNC(=O)C1c2cc(OC)c(OC)cc2C(=O)N2CCc3ccccc3C12 (stereo not shown),5.27%
4,COc1ccc(CCNC(=O)c2ccc(N(C)S(=O)(=O)c3ccccc3)cc2)cc1,10.9%
5,COCCCN1CC(=O)N2Cc3[nH]c4ccccc4c3C[C@H]2C1=O,16.4%
6,COC(=O)c1c(-c2ccco2)csc1NC(=O)C1CC=CCC1C(=O)O (stereo not shown),2.04%
7,CCSc1nc(-c2ccc(OC)cc2)ccc1C#N,5.36%
8,COc1ccc(CCNC(=O)Cc2ccccc2)cc1OC,19.1%
9,Cc1cc(Nc2cccc(O)c2)c2ccccc2n1.Cl,-14.9%
10,CCC(C)NC(=O)c1[nH]c(C)c(C(=O)OC)c1C (stereo not shown),-0.184%
11,COc1ccc(NC(C)C(=O)N/N=C/c2cc(Br)ccc2OC)cc1 (stereo not shown),14.9%
12,CS(=O)(=O)N1N=C(c2ccco2)CC1c1ccc(Cl)cc1 (stereo not shown),6.82%
13,O=C(NCCCN1CCN(Cc2ccccc2)CC1)c1nnc(Cc2c(F)cccc2Cl)o1,-39.4%
14,CC(=O)c1cccc(NC(=O)C(C)OC(=O)c2ccc3ncsc3c2)c1 (stereo not shown),2.7%
15,CCCCn1c(SCC(N)=O)nc2ccc(N3CCOCC3)cc2c1=O,-16.9%
16,CC(OC(=O)CN(C)S(=O)(=O)c1ccc(Cl)cc1)C(=O)Nc1cccc(Cl)c1 (stereo not shown),9.88%
17,Cc1ccc(C(=O)NCC(=O)NCC(=O)OCC(=O)c2ccc([N+](=O)[O-])cc2)cc1,11.1%
18,COc1cc(C2Nc3cccc4cccc(c34)N2)cc(OC)c1OC(C)=O,6.81%
19,CCOc1ccc(C(=O)Nc2ccc(CN3CCOCC3)cc2)cc1Cl,-14.2%
20,CC(OC(=O)c1c[nH]c2ccccc12)C(=O)N1CCCC1 (stereo not shown),12.9%
21,O=C(Nc1c(F)cccc1F)C1CCN(C(=O)c2cccs2)CC1,13.1%
22,COc1cccc(OC)c1C(=O)Nc1ccc(N2CCN(S(C)(=O)=O)CC2)cc1,8.42%
23,Cc1ccc(-n2c(=O)[nH]cc(C(=O)Nc3ccc4c(c3)OCO4)c2=O)cc1C,-2.26%
24,O=C(O)C1C2CCC(O2)C1C(=O)Nc1ccc(OC(F)F)cc1 (stereo not shown),12%
25,COc1ccc(-n2c(=S)[nH]c3c(oc4ccccc43)c2=O)cc1,12%
26,O=C(Nc1ccccc1)C1CCN(C(=O)c2ccc(Br)cc2)CC1,-15.9%
27,CC1=C(C#N)C(c2ccc3ncccc3c2)C(C#N)=C(C)N1,8.61%
28,CCOc1ccc(C(=O)N2CCN=C2SC)cc1OCC,8.17%

row,Compound,"hERG current change (%, negative = inhibition) at 1uM"
1,O=C(NCc1ccccc1)C1CCCN(S(=O)(=O)c2ccc(F)cc2)C1 (stereo not shown),-0.188%
2,COc1ccc2c(c1)CCc1c(C(=O)N3CCCC3)noc1-2,-5.62%
3,CCN(CC(=O)Nc1ccccc1C(F)(F)F)C(=O)c1ccccc1Sc1ccccc1C#N,7.19%
4,CN(C1CCCCC1)S(=O)(=O)c1cc2c(cc1Cl)NC(=O)CO2,5.19%
5,CC(C)CCn1c(=O)c2ccccc2n2c(CCC(=O)NC3CCN(Cc4ccccc4)CC3)nnc12,-5.83%
6,Cc1ccc(C(=O)Cn2nnc3ccccc32)cc1[N+](=O)[O-],14.9%
7,Cc1cc(N2C(=O)C3CCCN3C2c2sccc2C)no1 (stereo not shown),8.22%
8,COC(=O)C(Cc1cnc[nH]1)NC(=O)C1CCC(=O)N1 (stereo not shown) ([pGlu]-His-OMe; configuration not given here),29%
9,CCOC(=O)c1cnn(-c2ccccc2)c1-n1cccc1C(=O)C(=O)N(C)C,-1.62%
10,CCC(C)(C)NC(=O)COc1ccc(C(=O)c2ccccc2)cc1,8.09%
11,COc1cc(C(=O)NCCCCCC(=O)O)cc(OC)c1OC,-0.515%
12,N#CCCN(C(=O)COC(=O)c1cccc(S(=O)(=O)N2CCCC2)c1)c1ccc(F)cc1,-11.1%
13,CC1(C)Cc2c(sc3ncn4nc(CCC(=O)O)c(=O)nc4c23)CO1,12.4%
14,CC1(OC(=O)C2CCCC2)C(=O)C=C2C=C(c3ccsc3)N(CCCCO)C=C2C1=O (stereo not shown),7.62%
15,Cn1nc(C(=O)NC(C)(C)C)c2ccccc21,-1.53%
16,CCCC[C@@H]1CNC(=S)N1CCc1cccc(F)c1,9.74%
17,COCCNC(=O)CNC(=O)c1nn(-c2ccc(OC)c(Cl)c2)c(=O)c2ccccc12,12.8%
18,O=P(Nc1ccccc1)(Nc1ccccc1)Oc1ccc(Cl)cc1,-4.28%
19,Cc1cc(C(F)F)n2nc(C(=O)Nc3ccc(S(=O)(=O)N4CCCC4)cc3)nc2n1,7.14%
20,COc1ccc(-c2nn(-c3ccccc3)cc2/C=N/NS(=O)(=O)c2ccccc2)cc1,7.3%
21,CCCCNC(=O)c1cc(-c2ccc3c(c2)OCO3)on1,11%
22,CC(NC(=O)CCC(=O)NC(C)C1COc2ccccc2O1)C1COc2ccccc2O1 (stereo not shown),2.02%
23,COc1ccccc1N1CC(C(=O)Nc2cccc(C(=O)O)c2)CC1=O (stereo not shown),8.66%
24,COc1cccc(NC(=O)COC(=O)c2ccccc2C(=O)N2CCN(c3ccccc3)CC2)c1,13.1%
25,Br.COc1ccccc1NS(=O)(=O)c1cc(N2Cc3ccccc3C2=N)ccc1N1CCOCC1,-61.2%
26,COc1ccc(NC(=O)c2cccc(S(=O)(=O)N3CCCC3)c2)cc1OC,2.14%
27,CSCCC(C(=O)NC1=NCCS1)N1C(=O)c2ccccc2C1=O (stereo not shown),-6.08%
